# Data reported in paper PMC4336329 (PLoS ONE, 2015).
# Out of some 310,000 compounds screened, about 2,200 (0.71%) showed an effect of 50% or more. Effects have a minus sign here. Some of the results follow.
# Molecular target: human ether-à-go-go-related gene (hERG) potassium channel (human, UniProt Q12809)
# Test: primary screen, population patch clamp on CHO cells stably expressing hERG
# human ether-à-go-go-related gene (hERG) potassium channel, sequence (Q12809 whole entry, looked up): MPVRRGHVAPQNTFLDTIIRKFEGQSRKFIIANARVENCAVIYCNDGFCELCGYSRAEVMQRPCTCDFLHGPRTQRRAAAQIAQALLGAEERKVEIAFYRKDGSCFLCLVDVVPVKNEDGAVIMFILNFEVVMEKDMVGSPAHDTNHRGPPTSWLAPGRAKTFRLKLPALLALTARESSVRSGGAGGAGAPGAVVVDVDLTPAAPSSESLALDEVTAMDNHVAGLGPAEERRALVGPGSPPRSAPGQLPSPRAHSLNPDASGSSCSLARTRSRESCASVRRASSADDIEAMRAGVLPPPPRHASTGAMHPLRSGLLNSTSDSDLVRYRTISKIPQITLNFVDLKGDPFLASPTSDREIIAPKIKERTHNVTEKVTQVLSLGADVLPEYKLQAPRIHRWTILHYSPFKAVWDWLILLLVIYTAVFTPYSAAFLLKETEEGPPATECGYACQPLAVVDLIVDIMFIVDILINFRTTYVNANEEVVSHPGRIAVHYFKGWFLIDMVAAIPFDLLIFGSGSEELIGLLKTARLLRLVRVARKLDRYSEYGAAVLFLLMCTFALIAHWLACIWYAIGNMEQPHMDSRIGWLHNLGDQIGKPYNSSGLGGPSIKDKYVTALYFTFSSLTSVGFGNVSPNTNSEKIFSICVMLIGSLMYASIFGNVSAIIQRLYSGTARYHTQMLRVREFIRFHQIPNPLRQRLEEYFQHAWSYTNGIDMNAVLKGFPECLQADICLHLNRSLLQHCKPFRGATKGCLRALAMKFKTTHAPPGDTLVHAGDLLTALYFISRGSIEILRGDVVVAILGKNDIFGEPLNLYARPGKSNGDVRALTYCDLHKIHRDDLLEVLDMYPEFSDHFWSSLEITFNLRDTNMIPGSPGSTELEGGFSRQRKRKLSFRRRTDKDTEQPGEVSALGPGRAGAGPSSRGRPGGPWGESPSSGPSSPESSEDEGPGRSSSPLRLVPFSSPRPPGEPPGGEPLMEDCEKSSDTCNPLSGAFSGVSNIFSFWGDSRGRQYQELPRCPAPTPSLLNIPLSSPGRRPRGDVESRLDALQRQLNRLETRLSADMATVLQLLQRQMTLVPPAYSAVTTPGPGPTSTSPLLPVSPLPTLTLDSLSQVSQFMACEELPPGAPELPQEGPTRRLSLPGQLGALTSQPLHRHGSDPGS
row,SMILES,"hERG current change (%, negative = inhibition) at 1uM"
1,O=C(Nc1ccc2cccnc2c1)c1ccc(Br)cc1,17.7%
2,O=C(O)C1CCN(c2nc(-c3ccccc3)nc3c2oc2ccccc23)CC1,-15%
3,COc1ccc(NC(=O)CN(C)CC(=O)Nc2ccc(Cl)cc2[N+](=O)[O-])cc1,-11.1%
4,Cc1ccc(-c2nc(SCC(=O)N(C)c3c(N)n(Cc4ccccc4)c(=O)[nH]c3=O)n[nH]2)cc1,15.9%
5,COc1cc(O)oc1C=Nc1ccc(Cl)cc1Cl,11%
6,COc1cc(C(=O)NC(C)Cc2cccs2)cc(OC)c1OC (stereo not shown),-13.1%
7,CCOc1ccc(C(=O)N[C@H](C(=O)O)C(C)C)cc1,10.5%
8,COc1cc(C2c3sc(=O)[nH]c3SC3C(=O)N(c4ccc(Br)cc4)C(=O)C32)ccc1O (stereo not shown),-0.407%
9,CCOc1cccc(C2c3c(oc4ccccc4c3=O)C(=O)N2c2ccccn2)c1 (stereo not shown),8.31%
10,COc1ccc(CN(CC2CCCO2)C(=O)c2cc3ccccc3oc2=O)cc1 (stereo not shown),3.59%
11,Cc1nnc(SCc2ccc(F)cc2)s1,8.55%
12,CCn1nc(C)cc1C(=O)N1CCCC(N2CCN(c3ccccc3OC)CC2)C1 (stereo not shown),1.73%
13,Cc1ccc(C)c(S(=O)(=O)N2CCN(C(=O)c3ccccn3)CC2)c1,4.9%
14,CN(C)CCCN(C(=O)C1COc2ccccc2O1)c1nc2cc3c(cc2s1)OCO3.Cl (stereo not shown),-21.3%
15,CSc1ccc(C2N=C(c3ccccc3)NO2)cc1 (stereo not shown),16.1%
16,COc1ccc(C2CC(c3ccccc3OC(C)=O)=NN2C(=O)/C=C/c2ccccc2)cc1 (stereo not shown),11.4%
17,CC1CN(S(=O)(=O)c2ccc(C(=O)OCc3ccc(C#N)cc3)cc2)CC(C)O1 (stereo not shown),-0.886%
18,Cc1oc(-c2ccccc2)cc1C(=O)Nc1cccc(C(=O)O)c1,-2.54%
19,O=C(Cn1cc2c(n1)CCCCC2)Nc1c(F)c(F)cc(F)c1F,12.2%
20,Cc1cc(C)c(C(=O)C(C)OC(=O)c2ccc(Cl)nc2)cc1C (stereo not shown),13.7%
21,O=C(CCCn1c(=O)[nH]c2cc(Cl)ccc2c1=O)NCCCN1CCN(c2ccc(F)cc2)CC1,-15.4%
22,COc1cc([N+](=O)[O-])cc(/C=N/NC(=O)Cn2nc(C)cc2C)c1O,15.4%
23,CCCCC(=O)Nc1ccc(C(=O)c2ccccc2)cc1,4.39%
24,CC(=O)N1CCN(Cc2nc3cc(NC(=O)c4ccccc4Cl)ccc3n2C)CC1,6.05%
25,Cc1nn(-c2ccccc2)c(Cl)c1/C=N/NC(=O)c1nn(C)cc1[N+](=O)[O-],6.06%
26,Cc1ccccc1-n1cnc2cc(NCc3cccs3)ccc21,2.42%
27,Cc1cccc(C)c1NC(=O)CC(NCc1ccco1)C(=O)O (stereo not shown),6.7%
28,CCOc1ccc(CN2CCNC(=O)C2CC(=O)N(C)C2CCCCC2)cc1 (stereo not shown),22.9%

row,SMILES,"hERG current change (%, negative = inhibition) at 1uM"
1,C[C@@H](CN1CCC(Cc2ccccc2)CC1)[C@@H](O)c1ccc(O)cc1.Cl,-60.5%
2,CCOc1ccc(CCNS(=O)(=O)c2ccc3c(c2)NC(=O)CC(=O)N3)cc1OCC,11.6%
3,CN1CCN(CCNC(=O)Nc2ccccc2C(F)(F)F)CC1,4.35%
4,COc1ccc(NC(=S)N/N=C/c2ccc(F)c(F)c2)cc1,11.7%
5,CCOC(=O)C1(CCOc2ccccc2)CCN(Cc2cc(OC)c(O)cc2Cl)CC1,7.21%
6,CN(C)C(=O)Cn1c(=O)n(C)c2ccccc21,1.54%
7,CCCc1nc2oc3cc(OC)ccc3c(=O)c2c(=O)n1Cc1ccco1,2.53%
8,O=C(CSc1ccc([N+](=O)[O-])cn1)Nc1cc(C(F)(F)F)ccc1N1CCOCC1,14.8%
9,COc1ccc(CN2C(=O)c3cccnc3C2Nc2ccc(OC)c(Cl)c2)cc1 (stereo not shown),-0.379%
10,Cc1ccc(-c2nnn(C/C(N)=N/O)n2)cc1,10.4%
11,FC(F)Oc1ccccc1C1CC(c2ccc(Br)s2)Nc2ncnn21 (stereo not shown),14.5%
12,CC(C)c1ccccc1NC(=O)c1ccccc1NC(=O)C1CCCCC1,7.38%
13,CCC(C)NC(=O)C1CCN(S(=O)(=O)c2cccc3cccnc23)CC1 (stereo not shown),0.398%
14,COc1ccc2c(c1)-c1c(ssc1=S)C(C)(C)N2,10.3%
15,O=C(c1ccc(S(=O)(=O)Cc2ccccc2F)c([N+](=O)[O-])c1)N1CCCC1,9.81%
16,CCC1(CC)C(=O)C(C)(C)C(=O)OC1c1ccccn1 (stereo not shown),7.87%
17,CC(C)(C)NC(=O)c1cccc(NC(=O)Cc2ccc(Br)cc2)c1,5.72%
18,COc1ccc(/C=N\NC(=O)c2cc(O)c(O)c(O)c2)cc1CN1CCN(c2ccc(F)cc2)CC1,10.4%
19,CCn1cc(/C=N/NC(=O)c2ccc(C#N)cc2F)c2ccccc21,-6.05%
20,CN(C)c1cccc2c1c(NC(=O)Nc1ccccc1)nn2C,8.15%
21,O=C(NNc1nc2ccccc2s1)C1CC1,3.55%
22,CC(C)(C)OC(=O)N1CCC(CC2CC(c3ccccc3)=NO2)(C(=O)NCc2ccccc2)CC1 (stereo not shown),1.67%
23,COc1ccccc1N1CCN(CC(O)c2ccccc2)CC1 (stereo not shown),12%
24,Cc1ccc(C(=O)N=c2sccn2C)cc1C,6.34%
25,Cc1c(C#N)c(N=CN(C)C)c(C(=O)c2ccccc2)n1-c1ccccc1,5.42%
26,O=C(Cc1ccc(F)cc1)OCn1nnc2ccccc2c1=O,11.4%
27,COc1cc(COCC(O)CN2CCN(CCN3C(=O)c4cccc5cccc(c45)C3=O)CC2)cc(OC)c1OC.Cl (stereo not shown),-6.37%
